# Assay results taken from ChEMBL document CHEMBL4888484, “Replenishing the malaria drug discovery pipeline: Screening and hit evaluation of the MMV Hit Generation Library 1 (HGL1) against asexual blood stage Plasmodium falciparum ,using a nano luciferase reporter read-out” (2022).
# Screen size: about 150,000 compounds; about 540 (0.36%) showed an effect of 50% or more. This is one part of the list.
# System: Plasmodium falciparum
# Test: Primary screen in NF54 nanoGlo assay, in single point, at 2uM, 72h; a lower Z score goes with more inhibition
# Assay type: functional, Erythrocyte
# Conditions: timepoint 72 hour
Structure (SMILES),% Inhibition,Z score
COC[C@@](C)(O)CNC(=O)c1ccsc1,-14%,2.07
Cc1cnc(N2CCC(NCCOc3ccccc3)CC2)s1,-2%,0.17
C#CC[C@H]1CCCN(c2nnnn2C2CC(COC)C2)C1 (some centres undefined),1%,-0.23
O=c1c2ccccc2nc2cc(-c3ccc(O)cc3)c(-c3ccccc3)nn12,39%,-4.85
Cc1oc(-c2cccc(Cl)c2)nc1CNC(=O)Nc1ccccc1C(F)(F)F,-7%,0.91
CC(C)(CO)CCCNC(=O)[C@@H]1Cc2cccc(F)c2O1,-1%,0.14
CCc1nc(C2CCN(C[C@H](O)COc3cc(C)ccc3Cl)CC2)n[nH]1,4%,-0.53
Cc1cccc(NC(=O)CN(C)CC(=O)N2CCC(Cc3ccccc3)CC2)c1C,-1%,0.13
Cc1ccc(Cl)cc1-n1nc(O[C@@H](C)C(=O)NCc2ccccc2F)ccc1=O,-6%,0.9
CCN(C(=O)c1cccc(-c2ccc3scnc3c2)c1)[C@H]1COC[C@@H]1O,-14%,1.5
CCc1ccc(CNC(=O)[C@@H]2COCC(=O)N2Cc2ccc(C)cc2)cc1,-9%,1.54
CC(C)(NC(=O)c1ccccc1)c1nc(-c2ccncc2)no1,-7%,0.97
CN1CCN2CCN(C(=O)Nc3ccc(Oc4ccccc4)cc3)C[C@@H]2C1,-1%,0.21
COC(=O)[C@H]1CCN(C(=O)CNc2cc(Cl)ccc2OC)[C@H]1C(C)C,-1%,0.08
O=C1Cc2ccccc2N1CCNC(=O)N1CCC[C@H]1C(F)F,4%,-0.79
Cc1cc(-c2nnc(NC(=O)Cc3cccs3)o2)n(C)n1,-12%,2.33
CC(=O)N1CC[C@H](CN(C)Cc2cnn(Cc3ccc(F)cc3)c2)C1,-1%,0.17
Cc1nc(-c2cc3c(s2)CCN(C(=O)c2ccon2)C3)cs1,-13%,1.89
CC[C@H]1[C@H](NC(=O)c2ccccc2N2CCC(=O)NC2=O)[C@H]2CCO[C@H]21,0%,-0.02
CC(=O)c1cnc(N(C)Cc2ccncc2C)nc1C,0%,-0.02
CC[C@@H](CC#N)NC(=O)c1cccn1C(C)C,-7%,0.71

Structure (SMILES),% Inhibition,Z score
CC(C)C[C@H]1CC(=O)N(CC(=O)N2CCN(C(=O)c3ccccc3)CC2)C1,-6%,1.09
Cc1ccc(F)cc1CN1CC(C#N)C2(C1)C(=O)Nc1ccccc12 (centres undefined),-7%,0.91
O=C(NCc1nccs1)NCC1(c2ccccc2)CC1,-11%,0.99
CCS(=O)(=O)CCn1cc(C)nn1,3%,-0.66
Cc1ccc(CN(Cc2ccc(F)cc2)C(=O)CN(CCN2CCOCC2)S(=O)(=O)c2ccc(Br)cc2)o1,-8%,1.34
CC(=O)c1ccc(CNC(=O)c2cc(C)no2)nc1C,-8%,0.66
CN(CC(=O)NC[C@H]1CCCO1)Cc1ccc(F)cc1Cl,-12%,1.49
CC(C)(C)n1nc(-c2ccco2)nc1[C@@H]1CCC(=O)N1,-9%,1.16
O=C(c1cccc(-c2ncc[nH]2)c1)N(CCO)Cc1nccs1,-17%,1.71
C[C@H](NCc1cccc(C#N)c1)C(=O)N1CCCCC1,-11%,1.04
Nc1nc(COC(=O)CCc2ccc3c(c2)OCO3)nc(Nc2ccccc2)n1,-3%,0.37
O=C1CN(Cc2ccc(Cl)s2)CCN1,-10%,1.15
Cc1cc(C(=O)N2CCC[C@@]3(CCCO3)CC2)no1,-3%,0.4
OCCN(Cc1ccc(F)cc1)C1CCN(c2ccc3c(c2)OCO3)CC1,-5%,0.73
C1=CC(N2CCOCC2c2nc(-c3ccccc3)no2)CCC1 (centres undefined),3%,-0.36
CC(C)CN1CCn2cc(C(=O)NCc3ccc(C(F)(F)F)cc3)nc2C1,6%,-0.84
COc1ccc([C@H](C)NC(=O)c2cc3c(s2)CCN(C(=O)c2ccccc2)C3)cc1,-8%,1.15
Cc1n[nH]nc1C(=O)NCCCn1cc(Cl)cn1,-9%,0.92
CC(C)(C)NC(=O)N(Cc1ccccc1OS(=O)(=O)c1ccc(F)cc1)CC1CC1,-6%,0.72
C#CCN(CCOC(=O)N(C)C)C1CCCC1,-7%,1
C=CC[C@]1(C(=O)O)CCCN(Cc2cc(C(N)=O)oc2C(C)(C)C)C1,1%,-0.21

Structure (SMILES),% Inhibition,Z score
O=C(c1cc2n(n1)CCN(Cc1cccc(Cl)c1)C2=O)N1CCC(Cc2ccccc2)CC1,-10%,1.1
O=C1NCCN(Cc2ccccc2)[C@H]1CC(=O)N1CCCCCCC1,-10%,1.82
Cn1ccc(C(=O)N2CC(F)(F)C[C@H]2Cn2cc(C(=O)NCc3ccccc3)nn2)n1,34%,-3.88
CN(CC1(CO)CCC1)c1nnc(C(C)(C)C)o1,3%,-0.54
COc1cccc(-c2cc(C(=O)N[C@@H](C)c3ccccc3)nc3cc(-c4ccccc4)nn23)c1,-14%,1.77
O=C(NCc1ccco1)c1cc(-c2cccc(F)c2)ns1,-6%,0.83
CC1CCN(C(=O)c2ccc(N3CC(C(N)=O)CCC3C)nc2)CC1 (centres undefined),-8%,0.74
CCc1nc(CCN2CCN(C)CC2)n(-c2ccc(S(N)(=O)=O)cc2)n1,3%,-0.58
CC(C)(C(=O)N1CC[C@H](CN2CCCC2)C1)c1ccc2c(c1)OCO2,-12%,1.91
CCN(CC)S(=O)(=O)c1ccc(-c2csc(N3N=C(c4ccc(OC)cc4)C[C@H]3c3ccc(OC)cc3)n2)cc1,5%,-0.77
Cc1ccccc1N1CCN(c2ncccc2CNc2cccc(C#N)n2)CC1,-4%,0.81
Cc1cc(C)cc(CN2CCN(C(=O)[C@@H](C)CN3CCOCC3)CC2=O)c1,-14%,1.65
O[C@H]1[C@H](NCc2cccs2)[C@H]2CO[C@H](O2)[C@@H]1n1cncn1,5%,-0.74
CC(C)N(Cc1c(-c2ccccc2)noc1N1CCOCC1)C(=O)c1ccccc1F,-3%,0.39
O=C(c1ccc(F)c(F)c1)N1CCC(O)(Cn2cc(C(=O)N3CCOCC3)nn2)CC1,30%,-3.38
CCCN1CCC(CC(=O)N[C@@H](C)c2cnn(-c3ccccc3)c2)CC1,-13%,2.38
Nc1nccnc1C(=O)NCc1ccn2ccnc2c1,0%,0.03
C[C@H]1C(=O)N(C)CCN1CCCCC1CCOCC1,-7%,0.79
Cc1ccc(S(=O)(=O)Nc2nc3c(C)cc(NC(=O)Nc4cccc(F)c4)cc3s2)cc1,31%,-3.54
CC(C)(C)C(=O)N1C[C@@H]2CN(C3CCCC3)CC[C@]2(CO)C1,-14%,1.95
C[C@H]1c2ccccc2CN1c1nnc(-c2n[nH]c3c2CCCC3)n1C,-5%,0.97

Structure (SMILES),% Inhibition,Z score
CCc1nn(C)c(Cl)c1CN1CC[C@H](NC(=O)c2cnccn2)[C@@H](O)C1,6%,-1.07
CS(=O)(=O)N1CCN(Cc2noc(C3CC3)n2)CC1,16%,-2.04
Cc1cc2c(N3CC[C@H](NC(=O)c4ccccc4)[C@@H](O)C3)ncnc2s1,-11%,1.05
Cc1cccc(-n2cc([C@H]3c4nc[nH]c4CCN3Cc3[nH]cnc3C)cn2)c1,-5%,0.57
Cc1cc(=O)n(CC(=O)Nc2ccc(Cl)c(C(F)(F)F)c2)c(-c2cccc(Cl)c2)n1,-3%,0.34
COc1cccc(C2(c3noc([C@]45CNC[C@H]4CCOC5)n3)CC2)c1,-5%,0.62
CC(=O)N[C@H]1CN(C(=O)c2ccc3c(c2)CCC3)C[C@@H]1c1ccc(C)cc1,-8%,1.43
COC(C(=O)N1C[C@@H]2CCCN(C(=O)C(OC)C3CC3)[C@@H]2C1)C1CC1 (some centres undefined),0%,0.01
COc1c(C)cc(C)cc1S(=O)(=O)Nc1nc(C(F)(F)F)c[nH]1,0%,-0.03
COc1ccc2c(c1)C(NC(=O)C1CCOC1)CCN2C(=O)C1CCOC1 (centres undefined),-11%,2.4
CC1(C)CC(=O)NCCN1Cc1noc(-c2ccccc2)n1,9%,-1.83
Cc1cc(C)cc(NC(=O)c2ccc(Nc3ncc(-c4cccc(F)c4)cn3)cc2)c1,31%,-3.48
COC[C@H]1CCCN1C(=O)[C@@H](C)C1CC[C@@]2(C)CC[C@H](NC(=O)c3ccc(OC)cc3)[C@@H](C)[C@@H]2[C@H]1O (some centres undefined),5%,-0.58
CCOC(=O)N1CCN(Cc2cn3cccc(C)c3n2)CC1,-5%,0.6
CCOC(=O)C1CCN(c2ncc(C(=O)Nc3ccccc3)c(N)n2)CC1,-12%,1.44
Nc1nc2cc[nH]c2cc1Br,4%,-0.7
Cc1ncc(CNCc2cncn2CC(C)C)cn1,4%,-0.36
O=S(=O)(NC1CCCC(C(F)(F)F)C1)N1CCOCC1 (centres undefined),-27%,3.18
Cc1noc(C)c1S(=O)(=O)N(C1CC1)[C@@H](C)c1cccc(C(F)(F)F)c1,-13%,2.37
